Data: PubChem BioAssay AID1508642 (National Center for Advancing Translational Sciences (NCATS), 2021)
In all, about 43,000 compounds went through this assay and about 200 (0.47%) were called active. Not shown: some 12% with an inconclusive outcome. The call rests on the fitted dose curve; in most records, active means well fitted cell-killing curve with a large enough effect; inconclusive means small, poorly fitted or top-dose-only effect, or effect the other way; inactive means flat fitted curve, though single readings scatter. Some of the results follow.

assay: Cell viability qHTS assay in S16 Pmp22-F2sN cells; conditions: S16 Pmp22-F2sN Schwann cells viability, CellTiter-Glo, 24 h; series mostly up to 57.5 µM; activity change, negative = cytotoxicity: at the top concentration; further: nearly all actives have a fitted effect of over 65% in size
How it was run: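 S16 Pmp22-F2sN Schwann cells (500-1,000/well) in phenol-red-free DMEM with 10% FBS received 23 nL compound by pin tool for 24 h at 37 °C. Viability was then read as CellTiter-Glo luminescence after 15 min at room temperature.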
On the % scale 0 is the no-effect control and ±100 the full control effect.

SMILES | activity change, negative = cytotoxicity
CCCCN(CC)C(=O)c1c[nH]c2ccc(S(=O)(=O)Nc3cccc(OC)c3)cc2c1=O | inactive: -0.772%
COc1ccc(NC(=O)CC2Nc3cccc4cccc(c34)NC2=O)cc1 (stereo not given) | inactive: -10.7%
CCOC(=O)CNC(=O)c1cc2c(=O)n(CC)c3ccccc3c2s1 | inactive: 18.6%
COC(=O)c1cc2sc(C)cc2n1Cc1ccccc1 | inactive: 6.62%
Cc1ccc(CNC(=O)CSc2ccc(-c3sc(-c4ccccc4)nc3C)nn2)cc1 | inactive: 1.24%
CCCOC(=O)c1ccc(NC(=O)Cn2nnc3sc4c(c3c2=O)CCC(C(C)(C)C)C4)cc1 (stereo not given) | inactive: 15%
COc1ccc(-c2onc(C)c2C)cc1S(=O)(=O)Nc1ccc(OC(F)(F)F)cc1 | inactive: -18.3%
Cc1ccc(CSc2oc(-c3ccco3)nc2S(=O)(=O)c2ccc(Cl)cc2)cc1 | inactive: -7.5%
CCOC(=O)c1cccc(NC(=O)c2cc(S(=O)(=O)N3CCCC3)cn2C)c1 | inactive: 0.0705%
O=C(Nc1cccc(C(F)(F)F)c1)c1cc2nc(-c3ccccc3)cc(C(F)(F)F)n2n1 | inactive: 6.21%
CCCOc1ccc(-c2cccc(NS(=O)(=O)c3cccs3)c2)nn1 | inactive: -3.14%
CCCOc1ccc(/C=C/C(=O)Nc2sc3c(c2C(=O)OCC)CCC(C)C3)cc1OC (stereo not given) | inactive: -0.969%
CC(=O)c1cc(-c2ccc(F)cc2)n(CC(=O)NC2CCCCCC2)c1C | inactive: -3.9%
O=S(=O)(c1ccc(Br)cc1)c1nc(-c2ccco2)oc1SCc1ccccc1F | inactive: -2.56%
COc1ccc(NC(=O)c2ccco2)cc1NC(=O)C(C)Oc1ccc(Cl)cc1Cl (stereo not given) | inactive: -1.48%
CCOc1ccc(CCNC(=O)CN2C(=O)c3cccnc3Oc3ccc(C)cc32)cc1OCC | inactive: 10.1%
Cc1ccc(NC(=O)c2cn(-c3ccccc3)nc2-c2ccccc2)cc1 | inactive: -2.68%
CCCCn1c(SCC(=O)Nc2cccc(OC)c2)nc2ccsc2c1=O | inactive: -1.58%
O=C(NCc1ccccc1)c1ccc(NC(=O)N2CCSc3ncccc32)cc1 | inactive: 11.3%
COc1cc(OC)c(NC(=O)c2cnn(-c3cccc(Cl)c3C)c2C2CCN(C(=O)OC(C)(C)C)CC2)cc1Cl | inactive: -1.1%
COc1ccc(-n2cc(-c3ccccc3)c3c(NCc4cccc(Cl)c4)ncnc32)cc1 | inactive: 1.92%
COc1ccc(Nc2ncnc3onc(-c4ccc(Cl)cc4)c23)cc1Cl | inactive: -3.24%
CCOC(=O)c1c(NC(=O)COc2cccc(C)c2C)sc2c1CCCCC2 | inactive: 17.1%
CC(C)c1ccc(Nc2c(-c3ccc(N4CCOCC4)cc3)nc3ncccn23)cc1 | inactive: 0.953%

SMILES | activity change, negative = cytotoxicity
Cc1ccc(C2=NN(CC(=O)NC(C)c3ccccc3)C(=O)CC2)cc1 (stereo not given) | inactive: 5.93%
COc1ccc(-c2cn3nc(N4CCC(C(=O)NCc5ccc(F)cc5)CC4)sc3n2)cc1 | inactive: 9.1%
Cc1ccc(-c2ccc(=O)n(CC(=O)Nc3ccc(C(C)C)cc3)n2)cc1 | inactive: 13.6%
CCOC(=O)c1ccc(NC(=O)CSc2nc(C)c(Cc3ccccc3)c(=O)[nH]2)cc1 | inactive: -0.183%
C=CCOc1ccc(C2c3c(oc4ccc(C)cc4c3=O)C(=O)N2CCCN2CCOCC2)cc1 (stereo not given) | inactive: 1.39%
Cc1ccc(Cn2ccn(Cc3cccc(C(F)(F)F)c3)c(=O)c2=O)cc1 | inactive: 14.8%
COc1cccc(NC(=O)CSc2nc3c([nH]c4ccccc43)c(=O)n2-c2cccc(Cl)c2)c1 | inactive: 2.72%
O=C(Nc1ccc(F)c(Cl)c1)C1Cc2ccccc2CN1S(=O)(=O)c1ccc(F)cc1 (stereo not given) | inactive: 14.5%
CCc1nn(CC(=O)Nc2ccc(C)cc2C)c(=O)c2cc3sccc3n12 | inactive: -5.3%
COc1ccccc1NC(=O)c1c(C)cc(C)nc1SCC(=O)Nc1cccc(C)c1 | inactive: -3.87%
COCCNC(=O)CCn1c(=O)c2cc(OC)c(OC)cc2n(CC(=O)Nc2ccccc2OC)c1=O | inactive: -1.46%
Cc1ccc(-n2nc(C)c3c(C)cc(=O)n(CC(=O)NC(C)C)c32)cc1 | inactive: -4.51%
CCc1cccc(CC)c1N(COC)C(=O)Cn1c(C)nc2ccccc21 | inactive: -24%
Cc1ccccc1Cn1c(SCc2ccc(C(=O)NC3CCCC3)cc2)nc2ccncc21 | inactive: 9.29%
CCCSc1nc2sc3c(c2c(=O)n1-c1cccc(Br)c1)CC(C)(C)OC3 | inactive: 4.13%
CCOC(=O)c1c(C)[nH]c(C)c1S(=O)(=O)N1CCC(C(=O)Nc2ccc(C)c(Cl)c2)CC1 | inactive: 5.35%
CC(=O)Nc1ccc(Nc2ncnc3c2c(-c2ccccc2)cn3-c2ccc(C)c(Cl)c2)cc1 | inactive: -4.49%
Cc1c(NC(=O)c2ccc(Br)o2)cccc1-c1nc2ccccc2o1 | inactive: -4.02%
Cc1cccc(C)c1NC(=O)CCS(=O)(=O)c1cccc2nonc12 | inactive: -6.74%
CCOc1ccccc1NC(=O)c1cc2c(=O)n(Cc3cccnc3)ccc2nc1C | inactive: -2.9%
CCOC(=O)c1ccc(NC2=CC(c3ccc(F)cc3)N(c3ccc(C(=O)OCC)cc3)C2=O)cc1 (stereo not given) | inactive: 18.7%
COc1ccc(NC(=O)N2CCN3CCCCC3C2)cc1OC (stereo not given) | inactive: -1.28%
COc1cc(C2NC(=O)c3c(sc4c3CCN(C)C4)N2)ccc1OC(=O)c1ccccc1 (stereo not given) | inactive: -21.5%
COc1ccccc1CNC(=O)CCNS(=O)(=O)c1cccc2nsnc12 | inactive: 2.59%

SMILES | activity change, negative = cytotoxicity
Cc1nc2c(c(C)nn2-c2ccccc2)c(C)c1CCC(=O)NCCc1ccc(Cl)cc1 | inactive: 2.86%
COc1cccc(NC(=O)N2CCN(C(=O)c3nsc4ccccc34)CC2)c1 | inactive: 0.57%
Fc1ccc(N2CCN(Cc3cccn3-c3nnc(N4CCN(C5CCCCC5)CC4)s3)CC2)cc1 | inactive: 3.38%
CCOC(=O)c1cc(-c2ccccc2)n(-c2cccc(C(=O)N(C)c3ccc(C)cc3)c2)c1C | inactive: 3.11%
CCc1ccccc1NC(=O)c1cc2c(Cl)nc3ccccc3c2s1 | inactive: 16.1%
Cc1ccc(NC(=O)C2CCCN(c3cnccn3)C2)c(C)c1 (stereo not given) | inactive: 0.58%
COc1ccc(CNC(=O)C2=C(C)C(=O)OC23CCN(C(C)=O)CC3)cc1 | inactive: -3.6%
CCCCOc1ccccc1C(=O)Nc1onc2c1CCCC2 | inactive: 5.18%
CC1CCN(c2oc(-c3ccc(COc4ccc(Cl)cc4)o3)nc2C#N)CC1 | inactive: -0.954%
COc1ccc(CCNC(=O)CCCn2c(SCC(N)=O)nc3cc4c(cc3c2=O)OCO4)cc1OC | inactive: -10.5%
CCOC(=O)N1CCc2c(sc3c2c(=O)n(Cc2ccccc2)c(=O)n3Cc2ccc(C)cc2)C1 | inactive: 0.87%
CC(C)OC(=O)/C(C#N)=C/c1ccc(-c2ccc(Cl)c(Cl)c2)o1 | inactive: -0.892%
CCOc1ccccc1CNC(=O)c1ccc(Cn2c(SCc3ccccc3)nc3cccnc32)cc1 | inactive: -11.2%
Cc1cc(C)c2nc(NC(=O)c3ccc(S(=O)(=O)N4CCC(C)CC4)cc3)sc2c1 | inactive: -6.32%
CCOC(=O)c1cnc2ccc(Cl)cc2c1Nc1ccc(OCC)cc1 | inactive: 10.6%
CCOC(=O)c1ccc(NC(=O)CC2C(=O)N(c3ccc(F)cc3)C(=O)N2Cc2ccc(C)cc2)cc1 (stereo not given) | inactive: -27.5%
Cc1cccn2c(=O)cc(COc3cccc(NC(=O)COc4ccccc4)c3)nc12 | inactive: -9.77%
COc1cccc(-c2nc3c(c(SCC(=O)Nc4cc(C)ccc4C)n2)Cc2c(CO)cnc(C)c2O3)c1 | inactive: 16.4%
CC(=O)c1ccc(NC(=O)CCc2nc(-c3ccc(C)cc3)no2)cc1 | inactive: -13.9%
Cc1nc(-n2nc(C)c(CCC(C)C)c2C)sc1C(=O)Nc1ccc(Br)cc1 | inactive: -0.4%
Cc1cc(C)c2sc(N3CCN(C(=O)C4CC4)CC3)nc2c1 | inactive: -19.8%
CSc1ccc(CCNc2ncnc3onc(-c4ccc(Cl)cc4)c23)cc1 | inactive: -20.3%
Cc1nc2nc(SCC(=O)N(Cc3ccccc3)C(C)C)nn2c(C)c1Cc1ccccc1Cl | inactive: -20.8%
COC(=O)c1cc2occc2n1Cc1nc(-c2cccc(Br)c2)oc1C | inactive: 7.42%

SMILES | activity change, negative = cytotoxicity
COc1ccc(C(=O)c2sc(Nc3cc(Cl)ccc3C)nc2N)cc1OC | inactive: 29.5%
CCc1ccc2ncc3c(-c4ccc(C)cc4)nn(CC(=O)Nc4ccc(C)cc4)c3c2c1 | inactive: 0.245%
COc1ccc(Oc2nc3c(C)cccn3c(=O)c2/C=C(\C#N)c2nc3ccccc3[nH]2)cc1 | inactive: -2.95%
Cc1cc(C)c(NC(=O)Cn2c(=O)n(-c3ccc(F)cc3)c(=O)c3c(C)c(C(=O)N(C)C)sc32)c(C)c1 | inactive: 7.34%
COc1ccc(-n2c(=O)c3ccc(C(=O)NCc4ccc(C)cc4)cc3n(Cc3ccc(C)cc3)c2=O)cc1 | inactive: 5.23%
Cc1ccccc1CNCCSc1nnnn1-c1ccccc1 | inactive: -6.6%
Cc1ccc2c(c1)N(CC(=O)NCCCN1CCCCC1C)C(=O)c1cccnc1O2 (stereo not given) | inactive: 17%
Cc1ccc2c(c1)N(S(=O)(=O)c1ccc3c(c1)NC(=O)CC(=O)N3)CCO2 | inactive: 1.26%
Cc1ccc(-n2nc3c(=O)n(CC(=O)NCc4ccco4)nc(C)c3c2C)cc1 | inactive: -23.5%
Cc1ccc(CNC(=O)CN(c2cc(C)cc(C)c2)S(=O)(=O)c2c(C)noc2C)cc1 | inactive: -1.82%
Cc1nc2cc(-c3ccccc3)nn2c(C)c1CCC(=O)NCc1cccc(Cl)c1 | inactive: -14.4%
COc1cc2[nH]c(=O)n(CCCCCC(=O)N3CCN(c4ccc(Cl)cc4)CC3)c(=O)c2cc1OC | inactive: -0.0709%
Cc1cccc(Cn2c(=O)n(CC3CCC(C(=O)N4CCC(C)CC4)CC3)c(=O)c3sccc32)c1 (stereo not given) | inactive: -1.57%
O=C(CSc1cn(CC(=O)N2CCCC2)c2ccccc12)Nc1ccccc1C(F)(F)F | inactive: -2.04%
COC(=O)c1ccccc1NC(=O)c1ccc2c(Cl)c3c(nc2c1)CCCC3 | inactive: 9.46%
COc1cc2nc(NCc3ccccc3)n3nc(-c4ccccc4)nc3c2cc1OC | inactive: 7.91%
CCOC(=O)Cc1ccc(NC(=O)N2CC(C)Oc3ccc(Cl)cc32)cc1 (stereo not given) | inactive: -5.31%
Cc1nc2ccn(Cc3cccs3)c(=O)c2cc1C(=O)N1CCN(c2ccccc2)CC1 | inactive: -5.05%
Cc1cccc(Cn2cccc2CNS(=O)(=O)c2ccc(C)c(C)c2)c1 | inactive: 0.972%
O=C(c1ccco1)n1nc(-c2ccc(Cl)cc2)nc1NCc1ccc(F)cc1 | inactive: 24.6%
CCCCN(Cc1ccco1)C(=O)Cn1ncc2c([nH]c3ccccc32)c1=O | inactive: 0.788%
Cc1ccc(-n2cnc3cc(C(=O)NCc4ccccc4Cl)ccc32)c(C)c1 | inactive: -22.9%
COc1ccc(CC(=O)NCc2ccc3c(c2)CCN3C(=O)c2cccc(C)c2)cc1 | inactive: 1.67%
